# From PubChem BioAssay AID588591 (National Center for Advancing Translational Sciences (NCATS), 2011)
# Several values for one entry are separate records, joined by “and”; a condition that tells them apart may be missing. Identical values can stand only once. The campaign covered roughly 390,000 compounds. About 4,700 (1.2%) were called active. The shares of active, inactive and inconclusive entries below differ from those in the screen. Calls come from the whole dose curve; as a rule, active = well fitted inhibition curve with a large enough effect; inconclusive = small, poorly fitted or top-dose-only effect, or another doubt; inactive = no such curve, though single readings can be large or run the other way. Potencies beside an inconclusive call are fits to weak or partial responses and may not hold up.
# Molecular target: DNA polymerase eta (Homo sapiens) (UniProt Q9Y253)
# Experiment: qHTS for Inhibitors of Polymerase Eta
# Conditions: recombinant Pol eta, fluorescent DNA replication assay; series mostly up to 114 µM; activity change, negative = inhibition: at the top concentration
# How it was run: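 Pol eta (10 nM) was preincubated with compounds for 15 min at room temperature, after which fluorescent replication substrate (50 nM final) was added to start the reaction. Fluorescence was read kinetically at 0 and 10 min.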
# % is set by controls: 0 for no effect and ±100 for the full control effect; potency is the fitted concentration of half-maximal effect; tags give direction and shape of the fitted curve.
# Sequence of UniProt Q9Y253 (Q9Y253 whole entry, looked up): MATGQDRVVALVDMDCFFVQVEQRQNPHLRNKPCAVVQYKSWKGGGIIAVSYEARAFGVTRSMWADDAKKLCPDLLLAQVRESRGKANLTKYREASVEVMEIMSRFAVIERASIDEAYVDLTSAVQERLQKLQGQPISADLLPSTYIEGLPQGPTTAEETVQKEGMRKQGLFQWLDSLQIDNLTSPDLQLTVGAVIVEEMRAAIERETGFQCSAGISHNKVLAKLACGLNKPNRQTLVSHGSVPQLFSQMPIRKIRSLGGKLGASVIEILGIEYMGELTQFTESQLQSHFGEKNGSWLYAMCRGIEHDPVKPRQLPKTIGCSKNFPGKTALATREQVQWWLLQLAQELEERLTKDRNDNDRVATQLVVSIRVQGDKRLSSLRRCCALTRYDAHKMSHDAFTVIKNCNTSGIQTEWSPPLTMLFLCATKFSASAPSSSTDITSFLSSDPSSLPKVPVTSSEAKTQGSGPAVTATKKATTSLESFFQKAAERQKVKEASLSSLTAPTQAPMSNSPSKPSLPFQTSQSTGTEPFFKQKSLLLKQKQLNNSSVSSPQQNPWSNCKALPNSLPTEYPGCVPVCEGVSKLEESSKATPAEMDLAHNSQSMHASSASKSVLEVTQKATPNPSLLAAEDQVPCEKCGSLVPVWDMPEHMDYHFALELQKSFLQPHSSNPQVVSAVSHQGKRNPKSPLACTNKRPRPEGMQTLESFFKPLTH
Structure (SMILES),Potency,"activity change, negative = inhibition"
COc1cc(NS(=O)(=O)c2ccc(NC(=S)NC(=O)c3sc4ccccc4c3Cl)cc2)ncn1,active: 25.1 µM,–
Clc1ccc(CN2C3=NCCCN3c3ccccc32)cc1,"inconclusive: 89.1 µM [inhibitor, partial curve, poor fit]",–
CC(C)CCc1noc(CN(CC2CCC2)CC2CCCO2)n1 (stereo unspecified),"inconclusive: 89.1 µM [inhibitor, partial curve, poor fit]",–
CCc1ccccc1N1CC(C(=O)N2Cc3ccccc3CC2C(N)=O)CC1=O (stereo unspecified),"inconclusive: 1.26 µM [inhibitor, partial curve, poor fit]",–
O=C(CNC(=O)c1ccccc1F)N/N=C/c1cc(Br)ccc1OC(=O)/C=C/c1ccco1,–,inactive: -6.19%
Cc1cc(C)n(-c2nc(Nc3ccccc3)nc(-n3nc(C)cc3C)n2)n1,"inconclusive: 79.4 µM [inhibitor, partial curve]",–
Cc1cc(C)nc(NC(=O)c2ccc([N+](=O)[O-])o2)n1,"inconclusive: 25.1 µM [inhibitor, partial curve]",–
Cn1c(N2CCOCC2)nc2c1c(=O)n(Cc1ccc(Cl)cc1)c(=O)n2C,–,inactive: -9.41%
Cc1ccc(S(=O)(=O)N2CCOCC2)cc1NC(=O)COC(=O)CCOc1ccc(C(C)(C)C)cc1,"inconclusive: 89.1 µM [inhibitor, partial curve, poor fit]",–
Cn1c(=O)c2[nH]c(Nc3ccccc3)nc2n(C)c1=O,"inconclusive: 35.5 µM [inhibitor, partial curve, poor fit]",–
COc1ccc(CNC(C)C23CC4CC(CC(C4)C2)C3)c(OC)c1OC (stereo unspecified),"inconclusive: 89.1 µM [inhibitor, partial curve, poor fit]",–
O=C(O)CCc1nnc(SCC(=O)Nc2ccc(Cl)c(C(F)(F)F)c2)[nH]c1=O,–,inactive: 1.32%
C1=C(CCNc2ncnc3c2[nH]c2ccccc23)CCCC1,"inconclusive: 50.1 µM [inhibitor, partial curve, poor fit]",–
CN(C)c1ccc(/C=C2\SC(=S)N(Nc3ncc(C(F)(F)F)cc3Cl)C2=O)cc1,active: 44.7 µM,–
CCOc1ccccc1NC(=O)c1nn(C)c2c1CSc1ccccc1-2,–,inactive: -12.1%
CC(C)CN(CC(C)C)CC(O)CN(c1ccccc1)S(=O)(=O)c1ccccc1[N+](=O)[O-] (stereo unspecified),"inconclusive: 31.6 µM [inhibitor, partial curve, poor fit]",–
c1ccc(-c2ccccc2OCCOCCN2CCOCC2)cc1,–,inactive: -5.74%
CCN(CC)CCOC(=O)c1ccc(N/C=C(/C#N)c2nc(-c3ccc(OC)c(OC)c3)cs2)cc1,"inconclusive: 100 µM [inhibitor, partial curve, poor fit]",–
COc1ccc(C(=O)Nc2ccc3oc(Cc4ccc(Cl)cc4)nc3c2)cc1OC,"inconclusive: 79.4 µM [inhibitor, partial curve, poor fit]",–
Cc1ccc(NC2CCCCC2NS(=O)(=O)c2ccccc2)c(C)c1 (stereo unspecified),"inconclusive: 56.2 µM [inhibitor, partial curve, poor fit]",–
Nc1nonc1C(=O)N/N=C/c1ccc(-c2ccc(Cl)c(C(=O)O)c2)o1,active: 12.6 µM,–
O=C1C=C(NCc2ccccc2)c2ccccc2C1=O,active: 5.62 µM,–

Structure (SMILES),Potency,"activity change, negative = inhibition"
COc1ccc(NS(=O)(=O)c2ccc3c(c2)[C@H]2C=CC[C@H]2[C@@H](c2ccc(C(=O)O)cc2)N3)cc1,active: 12.6 µM and active: 2.82 µM,–
CC1Cc2cc(S(=O)(=O)NCc3ccc(Cl)cc3)ccc2N1C(=O)C1CCC1 (stereo unspecified),–,inactive: -7.49%
COc1ccc(S(=O)(=O)CCC(=O)N2CC(=O)N(CCc3ccccc3)C(=O)C2)cc1,"inconclusive: 39.8 µM [inhibitor, partial curve, poor fit]",–
C=CS(=O)(=O)c1c2cc(OC)ccc2nc2ccc(OC)cc12,"inconclusive: 31.6 µM [inhibitor, partial curve]",–
CCOC(=O)c1c(C)[nH]c(C(=O)N/N=C/c2ccc(Br)cc2)c1C,"inconclusive: 22.4 µM [inhibitor, partial curve]",–
CCC(=O)Oc1ccc2c(c1)O/C(=C\c1ccco1)C2=O,"inconclusive: 15.8 µM [inhibitor, full curve, poor fit]",–
O=C(c1ccc(Cl)c(S(=O)(=O)N2CCCCCC2)c1)N1CCN(c2ccccc2O)CC1,"inconclusive: 35.5 µM [inhibitor, partial curve, poor fit]",–
Oc1ccc(-c2cn3c(n2)SCC3)cc1O,active: 2.82 µM,–
Cc1cccc(NC(=O)c2ccc(C)c(S(=O)(=O)N3CCCCC3)c2)n1,–,inactive: 0.21%
O=C(NCC(=O)N1CCN(c2ccccc2O)CC1)c1ccc2c(c1)OCO2,"inconclusive: 22.4 µM [inhibitor, partial curve, poor fit]",–
O=C(NCc1ccco1)C1c2ccccc2Oc2ccccc21,active: 7.94 µM,–
CCOC(=O)c1[nH]c(C)c(C(=O)/C=C/c2ccc(C(=O)O)cc2)c1C,active: 22.4 µM,–
COc1cc(Br)c(C2C(C#N)=C(N)Oc3n[nH]c(-c4cccnc4)c32)cc1OC (stereo unspecified),"inconclusive: 100 µM [inhibitor, partial curve, poor fit]",–
Cc1cc(-c2csc3nc[nH]c(=S)c23)cc(C)c1C,–,inactive: -21.7%
O=C1N=C(N2CCOCC2)S/C1=C/c1cc2c(cc1[N+](=O)[O-])OCO2,"inconclusive: 79.4 µM [inhibitor, partial curve]",–
COc1cc(C(=O)N2CCN(c3cccc(C)c3C)CC2)cc(OC)c1OC,"inconclusive: 100 µM [inhibitor, partial curve, poor fit]",–
CCc1ccccc1NC(=O)CCCn1c(=O)c2cccn2c2ccccc21,–,inactive: -14.4%
COc1ccc(NC(=O)C2Cc3ccccc3CN2S(=O)(=O)c2ccccc2)cc1OC (stereo unspecified),–,inactive: -15.5%
CCOC(=O)C(Cc1ccccc1)NC(=O)Cn1nnc(-c2ccc(SC)cc2)n1 (stereo unspecified),"inconclusive: 3.98 µM [inhibitor, partial curve, poor fit]",–
COc1ccc2oc(=O)c(/C(C)=N/Nc3ccccc3)cc2c1,–,inactive: -1.06%
CC(=O)c1ccc(NC(=O)c2ccc3nc(-c4ccco4)c(-c4ccco4)nc3c2)cc1,active: 2.82 µM,–
CCOC(=O)c1c(-c2ccc(C)cc2)csc1NC(=O)C1CC=CCC1C(=O)O (stereo unspecified),"inconclusive: 31.6 µM [inhibitor, single point]",–

Structure (SMILES),Potency,"activity change, negative = inhibition"
Cc1nc(CSc2ccc(Cl)cc2)cc(N2CCOCC2)n1,–,inactive: -3.2%
O=C1CC(SC(=S)C2CCCC2=O)C(=O)N1 (stereo unspecified),active: 7.08 µM,–
CCN(CC)CCN(C(=O)c1ccc2ccccc2c1)c1nc2cc3c(cc2s1)OCO3,"inconclusive: 3.98 µM [inhibitor, full curve, poor fit]",–
C/C=C/C=C/C(=O)Nc1nccs1,"inconclusive: 31.6 µM [inhibitor, single point]",–
CCOC(=O)N1CCc2cc(OC)c(OC)c3c2c1cc1cc(OC)c(OC)cc13,"inconclusive: 25.1 µM [inhibitor, single point]",–
Cn1c(=O)c(Nc2ccc(O)cc2)c2c3c(cccc31)C(=O)c1ccccc1-2,active: 14.1 µM,–
CCOC(=O)c1c(NC(=O)CSc2cn(CCNC(=O)c3ccc(OCC)cc3)c3ccccc23)sc2c1CCC2,"inconclusive: 100 µM [inhibitor, partial curve, poor fit]",–
Cc1ccc(C(=O)Nc2cccc(C(=O)N/N=C/c3ccc(O)cc3)c2)cc1,"inconclusive: 39.8 µM [inhibitor, partial curve, poor fit]",–
COc1cc(NC(=O)COc2ccccc2[N+](=O)[O-])ccc1NC(=O)c1cccs1,"inconclusive: 10 µM [inhibitor, full curve, poor fit]",–
O=C1CC(c2ccco2)Sc2nc3ccccc3n21 (stereo unspecified),–,inactive: 7.47%
CCOC(=O)c1ccc(NC(=O)CSc2ncc(S(=O)(=O)c3ccc(C)c(Cl)c3)c(=O)[nH]2)cc1,"inconclusive: 89.1 µM [inhibitor, single point]",–
Cc1c(C(=O)O)cccc1-c1ccc(/C=N/Nc2ccc(Br)cc2)o1,active: 22.4 µM,–
Cc1noc(C)c1COc1ccc(C(=O)OCC(=O)NCc2ccccc2Cl)cc1,"inconclusive: 89.1 µM [inhibitor, partial curve, poor fit]",–
COc1cccc(-c2nnc(SCC(=O)Nc3ccc(S(N)(=O)=O)cc3)n2C)c1,"inconclusive: 89.1 µM [inhibitor, partial curve]",–
COc1ccc(-c2csc3nc(-c4ccc(C)cc4)oc(=O)c23)cc1OC,"inconclusive: 2.51 µM [inhibitor, full curve, poor fit] and inconclusive: 63.1 µM [inhibitor, partial curve, poor fit]",–
O=C(/C=C/c1ccco1)NC(=S)Nc1ccc(Cl)cn1,"inconclusive: 17.8 µM [inhibitor, full curve, poor fit]",–
O=C(COC(=O)c1cc(S(=O)(=O)N2CCc3ccccc3C2)ccc1Cl)NCc1ccco1,active: 20 µM,–
CCCC(=O)N1CCc2[nH]c3ccccc3c2C1,"inconclusive: 28.2 µM [inhibitor, partial curve, poor fit]",–
Cc1cc(NC(=O)CSc2nnc(NCc3ccccc3)s2)no1,"inconclusive: 44.7 µM [inhibitor, partial curve, poor fit]",–
O=C(CCC(=O)c1cccs1)NCCc1ccc(F)cc1,–,inactive: 0.659%
CSc1cccc(NC(=O)COC(=O)C2(c3ccccc3)CC2)c1,"inconclusive: 22.4 µM [inhibitor, full curve, poor fit]",–
O=C(O)C(O)c1ccccc1 (stereo unspecified),inactive,–
